Assay results from article PMC9911399, “Two distinct binding modes provide the RNA-binding protein RbFox with extraordinary sequence specificity”.
Changes are numbered by the printed parent chain; changes in the protein carry UniProt numbers. Some of the results follow.

T1: RBFOX1 RRM RbFoxmut (Fox-RRM*) (Homo sapiens, UniProt Q9NWB1 109-208, R118D;E147R;N151S;E152T)
T1 sequence: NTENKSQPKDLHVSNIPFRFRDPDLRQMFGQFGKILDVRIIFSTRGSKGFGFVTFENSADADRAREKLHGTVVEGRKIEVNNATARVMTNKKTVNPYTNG

B1: GUGUCCC (DNA:RNA)
RNA: GGGAGACCGGAAUUCAGAUUGUCCGUGUCCCUUAAAUCCCGUCGUAGCCACCA
DNA 1: CAATCTGAATTCCGGTCTCCC
DNA 2: TGGTGGCTACGACGGGATT
B2: UCGCAAC (DNA:RNA)
RNA: B1 RNA with G25U, U26C, U28C, C29A, C30A
DNA 1: CAATCTGAATTCCGGTCTCCC
DNA 2: TGGTGGCTACGACGGGATT
B3: CCGUCGU (DNA:RNA)
RNA: B1 RNA with G25C, U26C, C30G, C31U
DNA 1: CAATCTGAATTCCGGTCTCCC
DNA 2: TGGTGGCTACGACGGGATT
B4: UUCGUUG (DNA:RNA)
RNA: B1 RNA with G25U, G27C, U28G, C29U, C30U, C31G
DNA 1: CAATCTGAATTCCGGTCTCCC
DNA 2: TGGTGGCTACGACGGGATT
B5: UGCUGAC (DNA:RNA)
RNA: B1 RNA with G25U, U26G, G27C, C29G, C30A
DNA 1: CAATCTGAATTCCGGTCTCCC
DNA 2: TGGTGGCTACGACGGGATT
B6: ACCGAUU (DNA:RNA)
RNA: GGGAGACCGGAAUUCAGAUUGUCCACCGAUUUUAAAUCCCGUCGUAGCCACCA
DNA 1: CAATCTGAATTCCGGTCTCCC
DNA 2: TGGTGGCTACGACGGGATT
B7: CACUGUC (DNA:RNA)
RNA: B6 RNA with A25C, C26A, G28U, A29G, U31C
DNA 1: CAATCTGAATTCCGGTCTCCC
DNA 2: TGGTGGCTACGACGGGATT
B8: CUACAGG (DNA:RNA)
RNA: B6 RNA with A25C, C26U, C27A, G28C, U30G, U31G
DNA 1: CAATCTGAATTCCGGTCTCCC
DNA 2: TGGTGGCTACGACGGGATT
B9: AAGGGCC (DNA:RNA)
RNA: B1 RNA with G25A, U26A, U28G, C29G
DNA 1: CAATCTGAATTCCGGTCTCCC
DNA 2: TGGTGGCTACGACGGGATT
B10: ACUGGUC (DNA:RNA)
RNA: B6 RNA with C27U, A29G, U31C
DNA 1: CAATCTGAATTCCGGTCTCCC
DNA 2: TGGTGGCTACGACGGGATT
B11: GCGCAAA (DNA:RNA)
RNA: B6 RNA with A25G, C27G, G28C, U30A, U31A
DNA 1: CAATCTGAATTCCGGTCTCCC
DNA 2: TGGTGGCTACGACGGGATT
B12: GAGCAGA (DNA:RNA)
RNA: B1 RNA with U26A, U28C, C29A, C30G, C31A
DNA 1: CAATCTGAATTCCGGTCTCCC
DNA 2: TGGTGGCTACGACGGGATT
B13: CAAGGGA (DNA:RNA)
RNA: B6 RNA with A25C, C26A, C27A, A29G, U30G, U31A
DNA 1: CAATCTGAATTCCGGTCTCCC
DNA 2: TGGTGGCTACGACGGGATT
B14: GAACGUA (DNA:RNA)
RNA: B6 RNA with A25G, C26A, C27A, G28C, A29G, U31A
DNA 1: CAATCTGAATTCCGGTCTCCC
DNA 2: TGGTGGCTACGACGGGATT
B15: ACGCCUA (DNA:RNA)
RNA: B6 RNA with C27G, G28C, A29C, U31A
DNA 1: CAATCTGAATTCCGGTCTCCC
DNA 2: TGGTGGCTACGACGGGATT
B16: AUACUCA (DNA:RNA)
RNA: B1 RNA with G25A, G27A, U28C, C29U, C31A
DNA 1: CAATCTGAATTCCGGTCTCCC
DNA 2: TGGTGGCTACGACGGGATT
B17: GUGUGCC (DNA:RNA)
RNA: B1 RNA with C29G
DNA 1: CAATCTGAATTCCGGTCTCCC
DNA 2: TGGTGGCTACGACGGGATT
B18: CAAGAAU (DNA:RNA)
RNA: B6 RNA with A25C, C26A, C27A, U30A
DNA 1: CAATCTGAATTCCGGTCTCCC
DNA 2: TGGTGGCTACGACGGGATT
B19: CAAUGGG (DNA:RNA)
RNA: B1 RNA with G25C, U26A, G27A, C29G, C30G, C31G
DNA 1: CAATCTGAATTCCGGTCTCCC
DNA 2: TGGTGGCTACGACGGGATT
B20: CGUAUUU (DNA:RNA)
RNA: B6 RNA with A25C, C26G, C27U, G28A, A29U
DNA 1: CAATCTGAATTCCGGTCTCCC
DNA 2: TGGTGGCTACGACGGGATT
B21: GGGAGUU (DNA:RNA)
RNA: B6 RNA with A25G, C26G, C27G, G28A, A29G
DNA 1: CAATCTGAATTCCGGTCTCCC
DNA 2: TGGTGGCTACGACGGGATT
B22: AAAAUUU (DNA:RNA)
RNA: B6 RNA with C26A, C27A, G28A, A29U
DNA 1: CAATCTGAATTCCGGTCTCCC
DNA 2: TGGTGGCTACGACGGGATT
B23: UCCGUGA (DNA:RNA)
RNA: B6 RNA with A25U, A29U, U30G, U31A
DNA 1: CAATCTGAATTCCGGTCTCCC
DNA 2: TGGTGGCTACGACGGGATT
B24: CGGCGUU (DNA:RNA)
RNA: B6 RNA with A25C, C26G, C27G, G28C, A29G
DNA 1: CAATCTGAATTCCGGTCTCCC
DNA 2: TGGTGGCTACGACGGGATT
B25: CAGGAGC (DNA:RNA)
RNA: B6 RNA with A25C, C26A, C27G, U30G, U31C
DNA 1: CAATCTGAATTCCGGTCTCCC
DNA 2: TGGTGGCTACGACGGGATT
B26: CUUUCAG (DNA:RNA)
RNA: B1 RNA with G25C, G27U, C30A, C31G
DNA 1: CAATCTGAATTCCGGTCTCCC
DNA 2: TGGTGGCTACGACGGGATT
B27: CUUCGUC (DNA:RNA)
RNA: B1 RNA with G25C, G27U, U28C, C29G, C30U
DNA 1: CAATCTGAATTCCGGTCTCCC
DNA 2: TGGTGGCTACGACGGGATT
B28: GUCGUUG (DNA:RNA)
RNA: B6 RNA with A25G, C26U, A29U, U31G
DNA 1: CAATCTGAATTCCGGTCTCCC
DNA 2: TGGTGGCTACGACGGGATT
B29: CUACAUU (DNA:RNA)
RNA: B6 RNA with A25C, C26U, C27A, G28C
DNA 1: CAATCTGAATTCCGGTCTCCC
DNA 2: TGGTGGCTACGACGGGATT
B30: UACCGAC (DNA:RNA)
RNA: B6 RNA with A25U, C26A, G28C, A29G, U30A, U31C
DNA 1: CAATCTGAATTCCGGTCTCCC
DNA 2: TGGTGGCTACGACGGGATT
B31: GUAUUUA (DNA:RNA)
RNA: B1 RNA with G27A, C29U, C30U, C31A
DNA 1: CAATCTGAATTCCGGTCTCCC
DNA 2: TGGTGGCTACGACGGGATT

Molecular target: T1, RBFOX1 RRM RbFoxmut (Fox-RRM*)
Assay: EMSA; HiTS-Eq, 1 nM pool, 10 min; buffer printed only for the single-RNA assays: 10 mM Tris pH 7.5, 150 mM NaCl, 3.4 mM EDTA, 0.001% NP-40, 30 C
Conditions: tags: His6 N-terminal (pET28a); label: 5' 32P
How it was run: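 Purified RbFox RRM, wild type or mutant, was incubated for 10 min in 50 µL with 1 nM of a 5′-radiolabelled RNA pool carrying 7 randomized nucleotides, whose flanks were annealed to DNA oligonucleotides, over a series of increasing protein concentrations. Unbound RNA was resolved on 8% native PAGE, cut out, reverse-transcribed, barcoded by PCR and sequenced on an Illumina HiSeq 2500. Relative association constants were derived from changes in read counts for each RNA species versus the control reaction and normalised to the cognate motif.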

Q: For B1, which binding signal is on record?
A: 0.101 KA relative to UGCAUGU

Q: Which binding signal does the source give for B2 here?
A: 0.0571 KA relative to UGCAUGU

Q: For B3, which binding signal is on record?
A: 0.107 KA relative to UGCAUGU

Q: With B4 as the binder, how does the binding signal read?
A: 0.146 KA relative to UGCAUGU

Q: For B5, which binding signal is on record?
A: 0.146 KA relative to UGCAUGU

Q: B6 was tested. Which binding signal did it give?
A: 0.0545 KA relative to UGCAUGU

Q: With B7 as the binder, how does the binding signal read?
A: 0.147 KA relative to UGCAUGU

Q: How did the binding signal turn out when B8 was run?
A: 0.0537 KA relative to UGCAUGU

Q: Which binding signal does the source give for B9 here?
A: 0.148 KA relative to UGCAUGU

Q: Which binding signal does the source give for B10 here?
A: 0.155 KA relative to UGCAUGU

Q: With B11 as the binder, how does the binding signal read?
A: 0.0886 KA relative to UGCAUGU

Q: B12 was tested. Which binding signal did it give?
A: 0.124 KA relative to UGCAUGU

Q: For B13, which binding signal is on record?
A: 0.0649 KA relative to UGCAUGU

Q: B14 was tested. Which binding signal did it give?
A: 0.334 KA relative to UGCAUGU

Q: With B15 as the binder, how does the binding signal read?
A: 0.0873 KA relative to UGCAUGU

Q: How did the binding signal turn out when B16 was run?
A: 0.109 KA relative to UGCAUGU

Q: B17 was tested. Which binding signal did it give?
A: 0.22 KA relative to UGCAUGU

Q: With B18 as the binder, how does the binding signal read?
A: 0.078 KA relative to UGCAUGU

Q: B19 was tested. Which binding signal did it give?
A: 0.0555 KA relative to UGCAUGU

Q: Which binding signal does the source give for B20 here?
A: 0.111 KA relative to UGCAUGU

Q: B21 was tested. Which binding signal did it give?
A: 0.09 KA relative to UGCAUGU

Q: With B22 as the binder, how does the binding signal read?
A: 0.0695 KA relative to UGCAUGU

Q: For B23, which binding signal is on record?
A: 0.0773 KA relative to UGCAUGU

Q: B24 was tested. Which binding signal did it give?
A: 0.0865 KA relative to UGCAUGU

Q: How did the binding signal turn out when B25 was run?
A: 0.0997 KA relative to UGCAUGU

Q: Which binding signal does the source give for B26 here?
A: 0.107 KA relative to UGCAUGU

Q: B27 was tested. Which binding signal did it give?
A: 0.124 KA relative to UGCAUGU

Q: For B28, which binding signal is on record?
A: 0.167 KA relative to UGCAUGU

Q: With B29 as the binder, how does the binding signal read?
A: 0.0434 KA relative to UGCAUGU

Q: How did the binding signal turn out when B30 was run?
A: 0.0696 KA relative to UGCAUGU

Q: With B31 as the binder, how does the binding signal read?
A: 0.142 KA relative to UGCAUGU
